# Measurements: article PMC4336329 (PLoS ONE, 2015)
# The campaign covered roughly 310,000 compounds. About 14,000 (4.5%) showed an effect of 50% or more. The effect is printed as a negative number. The list shows a part of the results.
# Biological target: human ether-à-go-go-related gene (hERG) potassium channel (human, UniProt Q12809)
# Test: primary screen, population patch clamp on CHO cells stably expressing hERG
# 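Note: peak tail current of the secondary pulse compared with the same well before compound.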
# Chain of human ether-à-go-go-related gene (hERG) potassium channel (Q12809 whole entry, looked up): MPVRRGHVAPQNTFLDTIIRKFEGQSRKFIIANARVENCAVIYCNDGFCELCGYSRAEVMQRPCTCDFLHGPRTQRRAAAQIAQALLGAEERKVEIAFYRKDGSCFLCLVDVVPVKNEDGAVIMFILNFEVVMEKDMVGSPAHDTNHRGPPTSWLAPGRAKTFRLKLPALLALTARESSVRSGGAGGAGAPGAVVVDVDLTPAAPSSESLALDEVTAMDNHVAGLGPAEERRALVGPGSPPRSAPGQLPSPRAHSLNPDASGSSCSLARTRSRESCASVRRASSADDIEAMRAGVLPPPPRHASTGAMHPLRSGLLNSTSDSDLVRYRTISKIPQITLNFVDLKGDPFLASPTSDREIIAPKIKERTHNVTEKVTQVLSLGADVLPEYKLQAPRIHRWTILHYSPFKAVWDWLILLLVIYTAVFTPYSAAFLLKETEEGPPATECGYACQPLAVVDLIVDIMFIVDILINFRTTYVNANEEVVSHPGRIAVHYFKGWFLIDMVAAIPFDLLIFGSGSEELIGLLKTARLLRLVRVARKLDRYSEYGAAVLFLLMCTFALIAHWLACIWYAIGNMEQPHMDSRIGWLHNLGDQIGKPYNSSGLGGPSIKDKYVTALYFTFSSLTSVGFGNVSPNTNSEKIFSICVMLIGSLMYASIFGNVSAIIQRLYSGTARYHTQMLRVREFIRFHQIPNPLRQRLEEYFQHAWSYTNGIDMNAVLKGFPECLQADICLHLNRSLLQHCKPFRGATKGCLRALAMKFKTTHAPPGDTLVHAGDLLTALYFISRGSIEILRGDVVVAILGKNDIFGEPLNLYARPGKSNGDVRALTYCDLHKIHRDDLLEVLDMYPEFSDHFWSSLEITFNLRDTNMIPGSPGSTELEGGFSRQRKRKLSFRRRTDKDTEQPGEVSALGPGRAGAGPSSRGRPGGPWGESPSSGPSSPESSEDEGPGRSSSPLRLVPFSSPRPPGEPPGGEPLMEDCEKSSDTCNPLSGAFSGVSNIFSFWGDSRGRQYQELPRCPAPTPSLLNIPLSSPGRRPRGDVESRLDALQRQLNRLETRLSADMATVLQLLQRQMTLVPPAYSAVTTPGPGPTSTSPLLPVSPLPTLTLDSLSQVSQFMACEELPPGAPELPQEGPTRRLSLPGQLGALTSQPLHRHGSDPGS
row,SMILES,"hERG current change (%, negative = inhibition) at 10uM [%]"
1,CC(=O)Oc1ccc(Cl)cc1/C=C/c1ccc2ccccc2n1,8.35
2,COc1cccc(/C=N/Nc2nc(Nc3ccccc3)nc(-n3nc(C)cc3C)n2)c1O,15.4
3,CC1CCN(CC(=O)Nc2nn(-c3ccccc3)nc2C(N)=O)CC1,11.1
4,CCN(Cc1nc(-c2cccc(Cl)c2)no1)CC1CCCO1 (stereo not shown),1.7
5,Cc1nn(-c2cc(Cl)ccc2Cl)c(C)c1C(=O)O,13.2
6,O=C(c1cccnc1)N1CCN(c2ccc(Cl)cc2)CC1,-22.1
7,Cc1c(C=C2C(=O)N(C)C(=S)N(C)C2=O)c2ccccc2n1CC(=O)NCC1CCCO1 (stereo not shown),4.95
8,CC(=O)c1cccc(NC(=O)CCc2nnc3ccc(N4CCOCC4)nn23)c1,21.2
9,CC(C)(C)c1nnc2sc(SC/C(O)=C(\C#N)c3nc4ccccc4[nH]3)nn2c1=O,-1.59
10,CCOc1cc(/C=N/NC(=O)c2ccncc2)ccc1OS(C)(=O)=O,-3.33
11,O=c1ccc(-c2ccc(S(=O)(=O)Nc3ccc(F)cc3)o2)n[nH]1,-0.825
12,Cc1ccc(-c2noc(CSc3ccccc3)n2)cc1,10.2
13,Cl.c1coc(CN(Cc2ccco2)c2ncnc3c2oc2ccccc23)c1,-26.6
14,CCOC(=O)c1c(NC(=O)CSc2nc3c(c(=O)n(C)c(=O)n3C)n2C(C)C)sc(C)c1C,-0.527
15,O=C(Cn1c(=O)oc2ccccc21)Nc1ccc(Br)cc1,10.7
16,O=C(Nc1ccc(Cl)cc1C(F)(F)F)C(Sc1cccc[n+]1[O-])c1ccccc1 (stereo not shown),-81.3
17,Cc1ccc(C2=Nc3ccc(Br)cc3C(c3ccncc3)=NN2)cc1,-19.8
18,COc1cc2c(=O)n(Cc3ccco3)c(=O)n(CC(=O)c3cccc(Br)c3)c2cc1OC,3.03
19,O=C(Nc1ccc(Cl)c(Cl)c1)OCCNC(=O)c1cccc(Cl)c1,7.78
20,COc1ccc(-c2nnc(SCC(=O)NC3CC3)o2)cc1,3.94
21,Cc1ccc(/C=C2\SC(N3CCN(C(c4ccccc4)c4ccccc4)CC3)=NC2=O)o1,17.8
22,CCN(c1ccccc1)S(=O)(=O)c1cc(C(=O)Nc2ccc(F)c(F)c2)ccc1F,-8.4
23,CCOC(=O)/C(C#N)=C/c1ccc(-c2ccsc2C(=O)OC)o1,0.545
24,COc1ccc(C(=O)OCc2cc3cccc(C)c3[nH]c2=O)cc1,14.2
25,COc1ccc(C2c3c(-c4ccccc4O)n[nH]c3C(=O)N2Cc2ccco2)cc1 (stereo not shown),-1.4
26,O=C(NN=C1C2CC3CC1CC(Cl)(C3)C2)c1cccs1,8.54
27,C=CCN1C(=O)c2ccc(C(=O)N3CCN(S(=O)(=O)c4cc(C)ccc4C)CC3)cc2C1=O,-36.2
28,CCOC(=O)c1cccc(NC(=O)CN(c2ccc(C)cc2)S(=O)(=O)c2c(C)noc2C)c1,11.8

row,SMILES,"hERG current change (%, negative = inhibition) at 10uM [%]"
1,CN(C)c1ccc(N2CN=C3SCC(=O)N3C2)cc1,15.4
2,NS(=O)(=O)c1ccc(CCNC(=O)c2ccc(NS(=O)(=O)c3ccc4[nH]c(=O)[nH]c4c3)cc2)cc1,-0.243
3,COc1ccccc1CNc1ccc(Br)cn1,2.77
4,COc1cc(NC(=O)c2ccc3c(c2)S(=O)(=O)N=C2CCCCCN23)cc(OC)c1,16.1
5,Cc1cc(-c2ccccc2)c2c(=O)n(-c3ccccc3)[nH]c2n1,13.1
6,CCCCn1c(SCC(=O)NCC2CCCO2)nc2ccc(N3CCOCC3)cc2c1=O (stereo not shown),-26.9
7,CC(C)N1CCC2(CC1)Oc1ccc(Br)cc1C1CC(c3cccnc3)=NN12 (stereo not shown),-38.5
8,COc1ccc(S(=O)(=O)Nc2cc(C)on2)cc1OC,8.54
9,S=C(N/N=C/c1ccc2c(c1)OCO2)NC1CC2CCC1C2 (stereo not shown),18.9
10,Cc1ccc(NC(=S)NCCc2c[nH]c3ccccc23)c(C)c1,-13.9
11,Cc1ccc(NC(=O)CN2C(=O)S/C(=C\c3cccn3-c3cccc(C(=O)O)c3)C2=O)cc1C,25.7
12,O=C(CCS(=O)(=O)Cc1ccc(Cl)cc1)NCCc1ccccc1,3.13
13,OC1(c2ccc(F)cc2)CN(c2ccccc2)C2=[N+]1CCS2.[Br-] (stereo not shown),-13.9
14,CCOC(=O)c1cccc(NC(=O)CN(c2ccc(C)cc2)S(=O)(=O)c2c(C)n[nH]c2C)c1,-20.2
15,O=C(CSc1nnc(CNc2ccc(Cl)cc2)o1)Nc1nc2ccccc2s1,9.77
16,Cc1ccc(Sc2cc(C(=O)NCCCN(C)C)c3ccccc3n2)cc1,-56.5
17,O=C(CSc1nnc(Cc2ccccc2)o1)N1CCOCC1,0.161
18,COc1ccccc1-c1nc(-c2ccccn2)no1,11.4
19,Cc1ccc(NC(=O)CSCc2cc(=O)n3cc(C)sc3n2)cc1,15.7
20,COc1ccccc1NC(=O)NCCN1CCCCC1,-5.98
21,CCOC(=O)C/C(C)=N/NC(=O)COc1ccccc1C,-2.87
22,CCn1c(C)nnc1SCC(=O)Nc1ccc(Cl)cc1,10.3
23,CCc1ccc(N=c2c([N+](=O)[O-])nn(-c3ccccc3)n2O)cc1,-16.3
24,O=C(N/N=C/c1ccco1)c1cc(Br)ccc1OCc1ccccc1,4.01
25,Cl.NC(=O)c1ccc(OCCC(O)N2CC=C(c3ccc(F)cc3)CC2)cc1 (stereo not shown),-71.2
26,Cc1ccc(-n2c(N)c(C(N)=O)sc2=S)cc1,4.74
27,COC1CCN(Cc2c(C(=O)N3CCN(C4CCCCC4)CC3)nc3ccccn23)CC1,5.42
